According to PMC5540273 (PLoS ONE, 2017):
For some of these results: What follows is the remainder of the data, with few or none of the strong results. Only a part is listed here, and it is no random draw.

Tests used:
Settings in all cases: concentration: 1 μM,replicates: in singlicate; n = 1
PRKD1 = test system: PRKD1
PRKD2 = test system: PRKD2
PRKD3 = test system: PRKD3
PRKG1 = test system: PRKG1
PRKG2 = test system: PRKG2
PRKR = test system: T1, PRKR
T1 construct: gene EIF2AK2

PRKX = test system: PRKX
PRP4 = test system: PRP4
PYK2 = test system: T2, PYK2
T2 construct: gene PTK2B

QSK = test system: QSK
RAF1 = test system: RAF1
RET = test system: RET
RIOK1 = test system: RIOK1
RIOK2 = test system: RIOK2
RIOK3 = test system: RIOK3
RIPK1 = test system: RIPK1
RIPK2 = test system: RIPK2
RIPK4 = test system: RIPK4
RIPK5 = test system: RIPK5
ROCK1 = test system: ROCK1
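Further: KINOMEscan kinase panel screen.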

Row | Compound | %Inh (PRKD1) [%] | %Inh (PRKD2) [%] | %Inh (PRKD3) [%] | %Inh (PRKG1) [%] | %Inh (PRKG2) [%] | %Inh (PRKR) [%] | %Inh (PRKX) [%] | %Inh (PRP4) [%] | %Inh (PYK2) [%] | %Inh (QSK) [%] | %Inh (RAF1) [%] | %Inh (RET) [%] | %Inh (RIOK1) [%] | %Inh (RIOK2) [%] | %Inh (RIOK3) [%] | %Inh (RIPK1) [%] | %Inh (RIPK2) [%] | %Inh (RIPK4) [%] | %Inh (RIPK5) [%] | %Inh (ROCK1) [%]
1 | COc1cccc(C2=C(Nc3ccc(SC)cc3)C(=O)NC2=O)c1 [SB-331032] | 0 | 0 | 0 | 0 | 0 | 11 | 0 | 0 | 0 | 0 | 8 | 0 | 33 | 0 | 22 | 2 | 0 | 9 | 26 | 0
2 | O=C1NC(=O)C(c2ccc(Cl)cc2)=C1Nc1cccc(O)c1 [SB-333613] | 0 | 0 | 0 | 12 | 18 | 0 | 0 | 0 | 0 | 21 | 19 | 6 | 0 | 6 | 9 | 0 | 0 | 34 | 38 | 33
3 | O=C1NC(=O)C(c2ccccc2Cl)=C1Nc1ccccc1 [SB-376715] | 0 | 13 | 16 | 0 | 5 | 26 | 22 | 2 | 0 | 13 | 10 | 14 | 11 | 0 | 12 | 1 | 24 | 0 | 0 | 0
4 | O=C1NC(=O)C(c2ccc(Cl)cc2)=C1Nc1ccc(O)c(Cl)c1 [SB-405367] | 4 | 0 | 35 | 0 | 7 | 15 | 10 | 32 | 18 | 14 | 17 | 0 | 0 | 0 | 10 | 0 | 0 | 16 | 28 | 0
5 | Cc1cc(C)cc(Oc2nccc(-c3c(-c4ccc(F)cc4)ncn3C3CCNCC3)n2)c1.O=C(O)C(F)(F)F.O=C(O)C(F)(F)F.O=C(O)C(F)(F)F [SB-284851] | 0 | 0 | 0 | 1 | 0 | 0 | 0 | 34 | 22 | 0 | 37 | 0 | 35 | 0 | 32 | 0 | 39 | 0 | 0 | 0
6 | O=C1NC(=O)C(c2ccccc2Cl)=C1Nc1cccc(C(=O)O)c1 [SB-390526] | 0 | 21 | 51 | 12 | 0 | 4 | 14 | 31 | 14 | 17 | 4 | 10 | 23 | 16 | 0 | 1 | 11 | 2 | 0 | 0
7 | CS(=O)(=O)c1ccccc1-c1nc(-c2ccc(F)cc2)c(-c2ccncc2)[nH]1 [SB-213663] | 12 | 10 | 0 | 32 | 28 | 1 | 0 | 0 |  | 0 | 47 | 36 | 29 | 0 | 10 | 0 | 30 | 26 | 0 | 11
8 | O=C(O)c1ccc(-c2nc(-c3ccc(F)cc3)c(-c3ccncc3)[nH]2)cc1 [SB-202620] | 0 | 11 | 19 | 0 | 12 | 11 | 0 | 0 | 24 | 0 | 47 | 31 | 8 | 0 | 4 | 0 | 78 | 32 | 30 | 0
9 | O=C1NC(=O)C(c2ccccc2)=C1Nc1cc(Cl)c(O)c(Cl)c1 [SB-390530] | 8 | 2 | 16 | 0 | 0 | 3 | 0 | 8 | 0 | 0 | 20 | 0 | 15 | 0 | 11 | 0 | 0 | 6 | 4 | 8
10 | O=C1NC(=O)C(c2ccccc2)=C1Nc1ccc(Cl)c(C(=O)O)c1 [SB-390532] | 0 | 4 | 0 | 0 | 0 | 0 | 0 | 46 | 0 | 0 | 2 | 13 | 9 | 0 | 0 | 45 | 26 | 15 | 0 | 40
11 | Cc1ccc(C)c(Oc2nccc(-c3c(-c4ccc(F)cc4)ncn3C3CCNCC3)n2)c1.O=C(O)C(F)(F)F.O=C(O)C(F)(F)F.O=C(O)C(F)(F)F [SB-284852] | 7 | 6 | 2 | 6 | 24 | 0 | 0 | 0 | 96.5 | 0 | 0 | 0 | 39 | 0 | 28 | 0 | 38 | 0 | 0 | 0
12 | O=C1NC(=O)C(c2ccc(Cl)cc2)=C1Nc1ccccc1 [SB-317661] | 39 | 0 | 0 | 25 | 0 | 43 | 0 | 0 | 16 | 0 | 13 | 0 | 0 | 0 | 0 | 0 | 0 | 0 | 23 | 3
13 | CSc1ccc(NC2=C(c3cccc(Cl)c3)C(=O)NC2=O)cc1 [SB-341528] | 0 | 0 | 0 | 0 | 0 | 9 | 0 | 37 | 0 | 19 | 24 | 0 | 9 | 0 | 0 | 0 | 0 | 5 | 10 | 7
14 | O=C1NC(=O)C(c2ccc(Cl)cc2)=C1Nc1cccc(C(=O)O)c1 [SB-360737] | 0 | 0 | 26 | 1 | 0 | 0 | 6 | 33 | 6 | 7 | 22 | 10 | 21 | 0 | 6 | 0 | 7 | 18 | 14 | 75
15 | COc1ccc(C2=C(Nc3cccc(Cl)c3)C(=O)NC2=O)cc1 [SB-326892] | 0 | 3 | 0 | 0 | 0 | 0 | 0 | 0 | 0 | 0 | 27 | 0 | 29 | 0 | 23 | 0 | 0 | 0 | 0 | 0
16 | O=C1NC(=O)c2c1c(-c1ccccc1)cc1[nH]c3ccc(O)cc3c21 | 0 | 0 | 0 | 2 | 89 | 0 | 21 | 10 | 9 | 38 | 0 | 9 | 70 | 0 | 88 | 0 | 12 | 18 | 29 | 13
